Experimental data taken from the supplement of paper PMC3334620.
In all, about 33,000 sequences were measured (“E-score (-0.5 to 0.5)”: median about -0.011, highest 2% from about 0.28 on). The list shows a part of the results.

Target: T1, Gcr1 (UniProt P07261)
T1 sequence: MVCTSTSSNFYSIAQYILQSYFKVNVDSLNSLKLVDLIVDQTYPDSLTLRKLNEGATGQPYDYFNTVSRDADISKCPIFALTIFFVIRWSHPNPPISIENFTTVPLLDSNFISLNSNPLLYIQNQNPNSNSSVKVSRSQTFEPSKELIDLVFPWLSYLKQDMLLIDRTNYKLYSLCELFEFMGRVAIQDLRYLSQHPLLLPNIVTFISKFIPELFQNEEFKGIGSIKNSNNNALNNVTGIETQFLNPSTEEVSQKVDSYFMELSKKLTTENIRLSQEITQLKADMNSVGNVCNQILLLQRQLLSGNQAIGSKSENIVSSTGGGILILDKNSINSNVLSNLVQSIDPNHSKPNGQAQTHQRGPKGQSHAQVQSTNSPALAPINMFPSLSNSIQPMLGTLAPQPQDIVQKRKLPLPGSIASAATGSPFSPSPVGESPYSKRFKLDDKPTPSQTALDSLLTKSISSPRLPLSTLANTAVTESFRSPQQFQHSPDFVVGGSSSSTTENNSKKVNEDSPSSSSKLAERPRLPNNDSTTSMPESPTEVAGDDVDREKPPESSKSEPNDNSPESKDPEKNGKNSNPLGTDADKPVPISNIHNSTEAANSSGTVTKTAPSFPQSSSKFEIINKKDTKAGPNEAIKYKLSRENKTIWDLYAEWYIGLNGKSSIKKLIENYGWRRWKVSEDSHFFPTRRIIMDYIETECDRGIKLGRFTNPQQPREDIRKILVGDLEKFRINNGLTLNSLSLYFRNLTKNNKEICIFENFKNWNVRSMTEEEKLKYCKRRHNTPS
Experiment: PBM E-score (8-mer binding enrichment) (E-score (-0.5 to 0.5)); higher = stronger / more preferred TF binding; most listed sequences are background and not binding sites
Conditions: protein concentration: 100 nM; construct: GST-full length
Procedure: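 Universal 'all 10-mer' protein binding microarrays (Agilent AMADID 015681) probed with GST-tagged S. cerevisiae TFs (full-length or DBD) made by in vitro transcription/translation (PURExpress), about 100-200 nM. Bound TF was detected with fluorescent anti-GST. Each ungapped 8-mer (which stands for itself and its reverse complement) is scored by the PBM enrichment score (E-score), a modified Wilcoxon-Mann-Whitney statistic from -0.5 to +0.5, computed with the Universal PBM Analysis Suite. Scale: above 0.35 generally sequence-specific binding.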

Sequence	PBM E-score
GTAGAACA	-0.0278
GGCGACCA	0.205
CACACAAG	0.128
GCTTTCTA	-0.196
AACTAATT	0.023
CGTCGTTA	0.13
CCAGTGTA	0.156
GCTTTAGA	-0.0822
AGGATATA	0.121
AATAGCCT	-0.124
ACAGCATG	-0.219
ACTGCATG	-0.0346
TCAGTTAA	0.0422
TGGAGACA	0.107
GTCGGACA	0.00135
CACACATC	-0.0508
CCATCTGA	0.106
CAAGCAAA	-0.185
TTCAAAAA	0.0814
TAAGCTTA	-0.244
CCTGGATA	0.0822
ATGCCCGG	0.0443
AAAATCCT	-0.0139
GTATGCAC	-0.248
CACTTTTC	0.032

Sequence	PBM E-score
GATCGGCC	-0.0306
ATCCTTTG	0.12
CCGCCGCG	0.136
ACCTTTTA	0.28
CCTGCCGC	-0.0896
TCGGTAAA	-0.0138
GATTGTGC	-0.244
ACATCGCG	-0.069
TAAGTTAA	-0.0129
CGTCAACG	-0.0661
ACCAGCTC	-0.149
GAAAAATA	-0.00613
AAGGACAT	-0.126
GCTGCCAC	0.301
AGTCTCCG	-0.0241
ACTGACGA	0.0846
AGATACTC	0.125
ACAGGCCG	0.0882
TGGTGGAA	0.124
AACACTCA	-0.0249
AGGAGCCA	0.214
GCAGTGTA	-0.206
GAGTACTC	-0.0973
TTCCTCAA	0.105
ACAGCTGG	-0.215

Sequence	PBM E-score
AACCAGTG	-0.195
CGAAGCAG	-0.0727
ACCAAAGT	0.0467
GTAAAAGA	0.00859
GAACCTTC	-0.0114
GAAAGCGC	-0.166
ATGGCGTG	-0.0168
AGATTCGC	0.0415
ATACCACG	0.0534
CACTGCAG	-0.112
CTAATTTA	0.291
CCTAGACG	-0.125
CACTTTAA	0.0656
CGTGTACA	-0.0328
GATATTCA	0.0728
AGCGCGAA	-0.103
CTGCGGAA	0.0547
GCCCCCCC	-0.0192
AATTAGCT	0.083
GACCAGCA	0.0731
AACACCGT	-0.132
ACAGCCCT	-0.19
GTTATCTA	0.0511
CGACATCG	-0.0982
CTCTCACC	-0.129

Sequence	PBM E-score
ACGGATAT	-0.0661
CCAGGTCC	-0.00479
TATTGACA	-0.243
AGGGTTCG	-0.0648
TCCTTGAA	-0.0928
ACGCATGC	0.0121
CCAGCGGA	0.0309
ACTAAATA	0.269
CGATAGCG	0.00164
CAACGTAC	-0.0815
AAGGCTTG	-0.0951
CCCTCTTA	-0.0414
CTCGGAAA	0.0246
CTTGCAGA	-0.144
GGATGTTA	0.244
ACGCCGTA	0.112
CCAAATAC	0.0871
ACAACACT	-0.0251
AACATAGC	-0.0652
GCATAGGC	-0.227
CACATCCA	0.0944
CAAGCATA	0.0591
AGGGGTAT	-0.0579
CTATAATA	0.176
GTCGCGGA	-0.188

Sequence	PBM E-score
CCGTTCGA	-0.175
CGCGGCTC	0.117
CTGCAGAA	-0.206
GATTATGA	0.0052
CAAGTTCA	0.00963
GCTTCGGA	0.157
CATTTAGG	0.027
AGCTGGTG	0.0386
CCTTAAAG	0.0175
CCGTGGCG	-0.102
CATGGCGG	-0.0542
ATACAGAA	0.16
AGAAACAA	0.0697
CTTGCAAA	0.0177
GAATTGTA	0.0321
CATAACCC	-0.121
AACCACGA	-0.123
CAGATGCA	0.0547
ATAATCGC	0.0337
GGAGGCTA	0.185
CCCAAGGC	-0.167
GTTGGGTA	-0.0149
ACCGGTTA	0.212
CCCGCCGA	-0.146
ACATTAAG	0.0636

Sequence	PBM E-score
AATTTTAC	0.0945
ACCACGGG	-0.168
CCAAAAAG	0.131
GTGTTATA	-0.0287
AAAATATT	0.0735
GCTCTCCC	-0.146
CTGTAACC	0.0204
CAGGGATG	-0.0679
CGATTTAA	0.158
CATTAAAC	0.045
ATGTCCGA	0.0142
AGTGGACC	-0.0505
AATGGGGC	0.0308
GAGTAACA	-0.0312
GATTTGGA	-0.0989
CATAAATC	0.0709
GGGAGGGA	0.00084
CCGGGAAA	-0.00328
AAAGCATG	-0.101
ATTATGCA	0.0304
GCATTCCC	-0.139
TACCTCAA	0.0776
ACGGAAGC	0.344
CACCCTGC	0.141
ATCTTCTA	0.206

Sequence	PBM E-score
AAGGGTCA	-0.267
CAAGAGGA	0.072
AAAGCAGA	0.101
GACCAACC	-0.169
GAATTGCC	-0.243
ATATTCCC	-0.0929
GCAAAGGA	-0.0648
ACATACCC	-0.0951
ATCAACTA	0.0186
AAGGTTTA	0.0367
TTGTGAAA	0.0169
ACATGATC	0.0272
CGCCAGCG	-0.0865
AAATCATA	-0.253
CGCCAGGA	0.157
AGCGACGG	-0.0243
ACGAGCAG	-0.144
CTATTTCA	0.0146
CTGGGCTA	-0.0409
ATACGACC	-0.00279
CGCGCTCA	0.0209
AAGCGAAC	-0.153
